From the supplement of paper PMC10126150
Values marked as one replicate rest on one cluster of the flow cell; about a third of the high ones do not repeat.

tested on: ATP; assay: switch fluorescence ratio, 500 uM ATP over buffer (Cy3 cluster intensity, sum of 5 cycles each) (fold (ratio)); higher = stronger signal-on switching upon ATP binding; sequences stand for … in TCGTCGGCAGCGTCAGATGTGTATAAGAGACAGTTTTTTTTTTTTTTTTTTTTTTTTT…TC; conditions: aptamer strand: ATP DNA aptamer (quencher-CACCTGGGGGAGTATTGCGGAGGAAGG + anchor), 100 nM annealed; ATP concentration: 500 uM; one replicate
Outline: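 Cy3-labelled switching-strand clusters on a modified Illumina MiSeq flow-cell were annealed to 100 nM quencher-labelled ATP aptamer and imaged first in selection buffer, then after 15 min with 500 uM ATP at 22 °C. NaOH stripping and re-annealing separated each of five buffer/ATP cycles, and clusters outside 100-1000 RFU were excluded. The fluorescence ratio sums target-cycle Cy3 intensity over buffer-cycle Cy3 intensity per cluster and averages it per switch-domain sequence.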
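Note: ATP exposure 15 min at 22 °C before imaging.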

Sequence	switch fluorescence ratio
AGGGCCAACG	1.03
TGATTCGTTA	0.998
ATGAGTAGTG	0.937
CTTTCCGGAC	1.37
AGTACAAAGA	0.972
GGGATTATCT	1.01
TATGTACGCC	1.15
CGGGATCCG	0.969
GCTACTGCTC	1.04
TATCCAGTGT	1.03
GCATTTTCGT	1.02
AGCGCCGACA	1.01
GGCGTAAGTA	1.04
TACCAACTGG	1
CATCAGGCCA	1.04
ACAGAACTAA	1.07
GATGTGACGA	1.01
GACGATGGAC	2.07
CCGGACTTTG	1
CAATCTAAG	0.998
ATGGACGTGG	1.03
GTTGGTCCCA	1.02
CAGACAGTTA	0.986
TTCCGGGTGG	0.997
CAAGGGCTAC	1.05

Sequence	switch fluorescence ratio
TACGCATCGC	2.03
CTTTGAAGAA	1.01
TAGGGACTTT	1.02
TTCGGTAAT	1.63
ATATATAGT	1
AGGAACTCGG	1.08
GTCACGAAGA	1.03
AGTAACGGAG	1.03
GTAGTCGTCC	1.01
GACTGGGCCC	0.985
AGGATTGGCT	0.989
CATTGAGCCG	0.986
CTCGCGTATA	1.35
AAATTAAGT	0.994
AGCCCCGCAG	1.73
CGGGTTGTTC	1.04
CCTAGTATTT	1.02
CCATTCGTAA	2.68
AGGGAGGAAG	0.983
GGGGTCGTGG	0.999
ACCTCGTCTC	1.08
ATAATGCACT	1.12
ATAGGATTAA	0.967
TGACGGGGCT	1.01
TAGGTAACAC	1.06

Sequence	switch fluorescence ratio
CCCTGCCGAG	1.33
TTACGTATGG	1.06
ATAGGTGCAA	1.05
AGCAGTGCCC	1.18
CGAGGCGTGT	0.993
CGGTTGCATG	1.04
AACGTAAGGG	2.04
TAGGGGCGC	0.999
TATCCAATAG	1.13
TCGGGTGGA	0.98
TAGTAGCAGC	1
TCGTTGTGTC	0.965
ATATAAAGAG	1.02
GGGTCTTAGT	1.01
CGACGGGGGT	1.02
GGTGGCTTCG	0.965
GATAAAGATT	0.984
CGATAATAGT	1.03
CCTACAGGAC	1.43
GGCACGAGGG	0.983
GTCGTATGTA	0.986
TTCAGCGCTA	1.1
GAACGCCGTG	0.982
AACCGGTAGG	1.04
GCTTGCGG	1.03

Sequence	switch fluorescence ratio
GATCGGTGTG	0.976
TAATCGC	1.01
ATCCTGGGAG	0.984
TGTTCAGCTT	1.02
CTGAAAACAA	0.997
ATGTCGAGTA	0.972
AATTTGTCGA	0.987
AAAATCATAA	0.991
TTAATTAAGC	1.02
TCGCTGAGAT	0.987
TGGTATTAGT	1
ACGTCTTCAG	1.04
CACTACGATC	1.06
CACTCTCTTT	1.03
GTACTCGCTC	1.09
TTCGCCTCAC	0.97
TTGATAATAT	0.993
AGTTATCTCG	1.06
GTTCTTATTA	0.941
AGCGCCTTCA	1.26
GGCTTTAAGG	1
TTGATTGCCG	0.97
TTGTACCTGT	0.967
CATTTAATGC	1.73
TCTATTGGAG	0.999
